Screen size: about 310,000 compounds; about 2,200 (0.71%) showed an effect of 50% or more. Effects have a minus sign here. Some of the results follow.
target: human ether-à-go-go-related gene (hERG) potassium channel (human, UniProt Q12809); assay: primary screen, population patch clamp on CHO cells stably expressing hERG
Sequence (Q12809 whole entry, looked up): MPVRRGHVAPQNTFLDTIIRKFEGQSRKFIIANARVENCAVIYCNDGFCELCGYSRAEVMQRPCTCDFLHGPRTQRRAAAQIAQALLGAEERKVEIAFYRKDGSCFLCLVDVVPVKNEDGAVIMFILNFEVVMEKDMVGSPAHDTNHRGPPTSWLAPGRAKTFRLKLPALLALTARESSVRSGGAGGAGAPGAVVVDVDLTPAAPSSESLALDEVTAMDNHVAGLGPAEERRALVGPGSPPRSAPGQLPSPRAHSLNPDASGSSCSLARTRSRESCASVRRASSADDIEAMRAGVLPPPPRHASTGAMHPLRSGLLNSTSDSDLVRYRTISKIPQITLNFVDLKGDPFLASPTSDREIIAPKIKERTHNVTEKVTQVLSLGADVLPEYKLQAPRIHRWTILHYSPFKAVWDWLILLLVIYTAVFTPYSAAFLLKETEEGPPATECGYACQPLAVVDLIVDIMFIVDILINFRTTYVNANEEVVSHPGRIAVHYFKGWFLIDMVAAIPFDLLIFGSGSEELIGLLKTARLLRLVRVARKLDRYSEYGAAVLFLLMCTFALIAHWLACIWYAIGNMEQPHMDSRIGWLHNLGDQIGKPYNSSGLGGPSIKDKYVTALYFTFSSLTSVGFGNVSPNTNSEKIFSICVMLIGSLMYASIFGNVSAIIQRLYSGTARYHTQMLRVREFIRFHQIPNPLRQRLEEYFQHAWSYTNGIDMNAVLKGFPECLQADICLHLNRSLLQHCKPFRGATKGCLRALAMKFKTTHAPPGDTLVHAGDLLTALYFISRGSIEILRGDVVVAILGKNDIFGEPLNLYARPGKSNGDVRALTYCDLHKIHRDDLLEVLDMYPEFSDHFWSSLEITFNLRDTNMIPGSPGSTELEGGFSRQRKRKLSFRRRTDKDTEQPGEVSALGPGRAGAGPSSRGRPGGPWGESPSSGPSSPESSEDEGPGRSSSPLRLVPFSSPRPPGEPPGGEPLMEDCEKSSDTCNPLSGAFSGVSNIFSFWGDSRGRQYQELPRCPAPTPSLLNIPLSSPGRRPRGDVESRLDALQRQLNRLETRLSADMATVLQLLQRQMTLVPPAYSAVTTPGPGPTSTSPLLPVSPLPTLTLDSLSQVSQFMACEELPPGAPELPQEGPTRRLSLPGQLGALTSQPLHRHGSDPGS

Row | SMILES | hERG current change (%, negative = inhibition) at 1uM
1 | CSc1ncc(Cl)c(C(=O)O)n1 | 19.7%
2 | Cc1cc(C)c(C)c(OCCCn2ccnc2)c1 | 2.77%
3 | CN(C)c1nc2n(c(=O)n1)CCO2 | 18.4%
4 | Cc1cccc(OCC(=O)OC(C)C(=O)Nc2ccc(S(=O)(=O)N3CCCCC3)cc2)c1 (centres unmarked) | 9.99%
5 | COc1ccc(C(C(=O)NCc2ccccc2)N(C(=O)c2snc(C(N)=O)c2N)c2ccccc2OC)cc1OC (centres unmarked) | -6.78%
6 | Fc1ccc(-c2cc(-c3nnc4n3CCCCC4)c3ccccc3n2)cc1 | -23.2%
7 | CCCCN(CCCC)C(=O)c1cc(Cl)ccc1[N+](=O)[O-] | 10.4%
8 | CC(C1CC2CCC1C2)N1CC(O)=C(c2nc3ccccc3[nH]2)C1=N (centres unmarked) | 7.7%
9 | Cc1ccc(C(=O)COC(=O)c2cc(=O)[nH]c3ccccc23)cc1 | 8.3%
10 | O=C(NC1CCN(S(=O)(=O)c2ccc(F)cc2)CC1)c1cccnc1 | -4.55%
11 | COc1ccc(C(=O)Nc2ccccc2C(N)=O)cc1 | 2.93%
12 | Cc1ccc(N=Nc2ccc(O)cc2)c(Br)c1 | 12.1%
13 | COc1cccc(NC(=O)C2CCN(S(=O)(=O)c3ccc4c(c3)NC(=O)C(C)S4)CC2)c1 (centres unmarked) | 25.8%
14 | O=C(CSc1nc(O)c(Cc2ccccc2)c(=O)[nH]1)N1CCOCC1 | -8.45%
15 | Cc1nc2ccccc2c(=O)n1NC(=O)Cc1ccc([N+](=O)[O-])cc1 | -8.74%
16 | COc1ccc(S(=O)(=O)N2CCN(C)CC2)cc1C(=O)Nc1ccccc1 | 11.7%
17 | CCOc1ccc(-n2c(N)c(C(=O)NCc3cccnc3)sc2=S)cc1 | 12.1%
18 | Cc1cc(O)ccc1Nc1nc2ccccc2nc1Nc1ccc(O)cc1C | 2.58%
19 | Cc1ccc(/C=N/NC(=O)c2cccs2)o1 | 7.85%
20 | O=C(c1ccc(=O)[nH]c1)N1CCN(S(=O)(=O)c2ccc(Cl)cc2)CC1 | 8.17%
21 | CCN(Cc1ccccc1)S(=O)(=O)c1ccc(C(=O)Nc2nnc(C3CC3)o2)cc1 | 12.3%
22 | CCN(CC)S(=O)(=O)c1ccc(N2CCCC2)c(NS(=O)(=O)c2ccc(F)cc2)c1 | 5.95%
23 | O=S(=O)(NCc1ccccn1)c1ccc(Cl)c(C(F)(F)F)c1 | 6.9%

Row | SMILES | hERG current change (%, negative = inhibition) at 1uM
24 | COc1ccc2nc(NC(=O)c3ccc(-n4nc(C)cc4C)cc3)sc2c1 | 13.5%
25 | COc1ccc(C(=O)NCC(=O)OCc2ccc(F)cc2)cc1 | 4.63%
26 | CSc1nc(-c2ccccc2)nn1S(=O)(=O)c1ccc(Cl)cc1 | 18.3%
27 | O=C(c1cccc(Br)c1)c1cn(-c2ccccc2)nc1C(=O)c1ccccc1 | 8.08%
28 | Cc1ccc(-n2nnnc2SCC(=O)NC2CCCc3ccccc32)cc1 (centres unmarked) | -4.36%
29 | CCN1C(=O)C2C(c3ccc(O)c(OC)c3)NC(C)(C(=O)OC)C2C1=O (centres unmarked) | 10.2%
30 | CSc1n[nH]c(NCc2ccc(Cl)cc2)n1 | 7.8%
31 | CN1C(=O)[C@@H]2[C@H](C1=O)[C@@H]1C(=O)Nc3ccccc3C(=O)N1[C@@H]2c1cccc(Br)c1 | -12.7%
32 | O=C(COC(=O)CCC(=O)c1ccc(Cl)cc1)NC1CC1 | 11.5%
33 | COc1ccc(NC(=O)C2CC(c3ccc(OC)c(OC)c3)=NO2)cc1OC (centres unmarked) | 1.07%
34 | COCCNC(=O)C(NC(=O)C1CCC(C)CC1)C(C)C (centres unmarked) | 8.56%
35 | Cc1cc(=O)[nH]c(Nc2ccc(C(=O)OC(C)C)cc2)n1 | 12.8%
36 | O=C(NN1CCCCC1)c1cnn2c(C(F)F)cc(-c3ccccc3)nc12 | 11.7%
37 | Cc1cccc(CCNC(=O)CCNC(=O)Cn2ccc3ccccc3c2=O)c1 | 14.3%
38 | COC(=O)c1ccc2ccccc2c1OC1OC(CO)C(O)C(O)C1NC(C)=O (centres unmarked) | 12.2%
39 | CCCc1ccc(OCc2ccc(C(=O)N3CCN(c4ccccn4)CC3)o2)c(OC)c1 | -13.6%
40 | CC(C)(C)n1nnnc1CN1CCN(C2CCCC2)CC1 | 3.93%
41 | CCN(CC)S(=O)(=O)c1ccc(N/N=C/c2ccc(O)cc2O)nc1 | 5.71%
42 | CC(C)(C)Nc1nc(SCC(=O)Nc2ccccc2)nc(N2CCOCC2)n1 | 14.7%
43 | Cc1cccnc1NC(=S)Nc1ccc(Cl)c(Cl)c1 | 6.21%
44 | COC(=O)c1cccc(NC(=O)c2ccc3c(c2)C(=O)N(CC2CCCO2)C3=O)c1 (centres unmarked) | -4.32%
45 | CCc1ccc2[nH]c(=O)c(C(c3nnnn3Cc3ccccc3)N3CCOCC3)cc2c1 (centres unmarked) | 0.57%
46 | COc1ccc([N+](=O)[O-])cc1NC(=O)c1cccnc1 | 6.33%

Row | SMILES | hERG current change (%, negative = inhibition) at 1uM
47 | O=C(COC(=O)C1(c2ccc(F)cc2)CCCC1)NC1CC1 | 2.2%
48 | Cc1ccccc1N(C(=O)c1ccccn1)C(C(=O)NCc1ccccc1)c1ccncc1 (centres unmarked) | 5.83%
49 | O=C(N/C(=C/c1cccnc1)C(=O)N1CCOCC1)c1ccco1 | 9.9%
50 | O=C(OCCc1cc2ccccc2c(=O)o1)c1ccccc1C(F)(F)F | 9.46%
51 | Cn1cc(CN2CCC(n3nccc3NC(=O)c3ccccc3Cl)CC2)c2ccccc21 | -47.6%
52 | O=C(N/N=C/c1ccco1)C(O)c1ccccc1 (centres unmarked) | 8.68%
53 | S=C(NCCc1ccccc1)Nc1ccccc1N1CCOCC1 | 11.8%
54 | Cc1c(C(=O)/C=C/N(C)C)nnn1-c1ccc(F)c(Cl)c1 | 0.307%
55 | O=C(CN1CCCCC1)N/N=C/c1cccc(C(F)(F)F)c1 | -3.1%
56 | CCN(C(=S)NCCOC)c1cccc2ccccc12 | 9.79%
57 | Cn1c(NC(=O)COc2ccccc2)cc(=O)n(C)c1=O | 12.7%
58 | Fc1cccc(/C=N/n2c(C3CCCCC3)n[nH]c2=S)c1 | 8.87%
59 | Cc1ccc(CN(c2ccc(C(=O)Nc3ccc4c(c3)OCO4)cc2)S(C)(=O)=O)cc1 | 15%
60 | CCc1nc2sc3c(O)cc(=O)[nH]c3c2cc1C | 11.3%
61 | CC1(C)CC(=O)C/C(=N/Nc2nc3ccccc3s2)C1 | 14%
62 | Cc1cc(C)c(NC(=O)CCn2nnc3ccccc32)c(C)c1 | 12.6%
63 | CC1=C(C(=O)Nc2ccccc2)C(c2cccnc2)n2ncnc2N1 (centres unmarked) | 11.1%
64 | Cc1ccc(NC(=O)CCSc2nnnn2-c2ccc3c(c2)OCO3)cc1C | 7.74%
65 | COc1ccc(CCNC(=O)c2ccc(CN3CCC(Cc4ccccc4)CC3)cc2)cc1OC | -3.19%
66 | COc1ccc(-c2ccnc(SCC(=O)N3CCN(c4ccccc4)CC3)n2)cc1 | 13.7%
67 | O=C(NC(=S)Nc1ccc(F)cc1)c1ccc2c(c1)OCCO2 | 3.29%
68 | COc1ccc(/C=C(\C#N)C(=O)OCCNC(=O)c2ccncc2)cc1 | 4.29%
69 | O=C(CCN1C(=O)/C(=C/c2cccs2)SC1=S)NC1=NCCS1 | 12.8%

Row | SMILES | hERG current change (%, negative = inhibition) at 1uM
70 | O=C(CCC1COc2ccccc2O1)Nc1ccccn1 (centres unmarked) | -1.02%
71 | Cc1ccc(C(=O)NCCc2nnc3ccc(SCC(=O)N4CCCCC4)nn23)cc1 | 12.6%
72 | COc1ccc(S(=O)(=O)N2CCCN(S(=O)(=O)c3ccc(OC)cc3C)CC2)c(C)c1 | 15%
73 | O=C(c1cc(S(=O)(=O)N2CCOCC2)c(Cl)cc1Cl)N1CCCCC1CO (centres unmarked) | 12.2%
74 | CCC1(CC)C(=O)N(C)C(=O)NC1=Nc1ccccc1 | 17.9%
75 | CC(Oc1ccc(Cl)cc1Cl)C(=O)NNC(=O)c1cccnc1 (centres unmarked) | 4.46%
76 | O=C(CN1CCN(S(=O)(=O)c2ccccc2)CC1)Nc1cccc(C(F)(F)F)c1 | -13.1%
77 | COc1cc(C(=O)CSc2nnc(-c3ccc(O)cc3)n2CC2CCCO2)ccc1NC(C)=O (centres unmarked) | 6.05%
78 | C/C(=N\N1CCCCCC1)c1c(O)n(C2CCCCC2)c(=O)[nH]c1=O | 8.08%
79 | CC(=O)Nc1ccccc1NC(=O)COc1cccc2ccccc12 | 15.5%
80 | COC(=O)c1ccc(N2CCC(C)CC2)c(N)c1 | 8.08%
81 | Cc1ccc(CS(=O)(=O)Cc2ccc(C(=O)NCc3ccccn3)o2)cc1 | 4.75%
82 | COC(=O)C1=C(C)N=c2s/c(=C/c3cccs3)c(=O)n2C1c1ccc(F)cc1 (centres unmarked) | 8.32%
83 | OCCC1CN(C2CCN(c3ccccc3)CC2)CCN1Cc1ccc(F)c(F)c1 (centres unmarked) | -71.1%
84 | O=c1cccc2n1C[C@@H]1CNC[C@H]2C1 | 0.854%
85 | O=C(Cc1ccc(F)cc1)N1CCC(N2CCC(C(=O)N3CCOCC3)CC2)CC1 | 9.62%
86 | C=CCN(C(=O)CNC(=O)c1cccs1)C(C(=O)NC(C)(C)C)c1ccccc1 (centres unmarked) | 7.79%
87 | CCC1=NN(C(=O)c2cccnc2)C(O)(C(F)(F)F)C1 (centres unmarked) | 6.94%
88 | COc1ccc(Cl)cc1NC(=O)Nc1ccccc1C(N)=O | 17.3%
89 | O=C(O)c1cccc(S(=O)(=O)Nc2ccc(O)cc2Sc2nc3ccccc3s2)c1 | 18.1%
